Values joined by “and” are separate entries in the source; they are usually repeats but may differ in a detail not shown here. Equal values may be shown once. Out of some 420,000 compounds screened, about 64,000 (15%) were called active. This list was built around the results that the source calls inconclusive (neither active nor inactive); the mix of calls is not that of the screen. Calls come from the whole dose curve; as a rule, active = well fitted inhibition curve with a large enough effect; inconclusive = small, poorly fitted or top-dose-only effect; inactive = flat fitted curve, though single readings scatter. Potencies of inconclusive entries are doubtful fits and often do not repeat.
test: qHTS for Inhibitors of human tyrosyl-DNA phosphodiesterase 1 (TDP1): qHTS in cells in absence of CPT; conditions: DT40 Tdp1-/- hTDP1 cells, no CPT, ATP luminescence, 48 h; activity change, negative = growth inhibition: at 46.2 µM (top of the series) unless noted; note: nearly all actives have a fitted effect of over 55% in size
Procedure, shortened: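 Chicken DT40 Tdp1-/- cells complemented with human TDP1, screened without camptothecin (DMSO vehicle only), 400 cells/well. Compounds pin-transferred, cells incubated at 37 °C for at least 48 hr. Growth read as ATP-dependent luminescence (CellTiter-Glo, 30 min at RT).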
% is set by controls: 0 for no effect and ±100 for the full control effect; potency is the fitted concentration of half-maximal effect; tags give direction and shape of the fitted curve.

Row | SMILES | activity change, negative = growth inhibition | Potency
1 | COc1cc(O)c(C(=O)c2ccccc2)cc1S(=O)(=O)O | inactive: 4.76% | 
2 | COc1cc(C(=O)NNC(=S)NC(=O)c2ccc3c(c2)OCO3)cc(OC)c1OC |  | inconclusive: 18.4 µM [inhibitor, single point]
3 | CCCCC(CC)COC(=O)c1ccc(N(C)C)cc1 (stereo not given) |  | inactive and inconclusive: 9.2 µM [inhibitor, partial curve]
4 | CNC1C(O)C(O)C(CO)O[C@H]1OC1C(O[C@@H]2C(O)C(O)[C@@H](N=C(N)N)C(O)C2N=C(N)N)OC(C)[C@]1(O)C=O (stereo not given in full) | inactive: -10.3% | 
5 | CCCCCCCOC(=O)C1=C(C)Nc2ncnn2C1c1cccs1 (stereo not given) |  | active: 13 µM
6 | COc1cc(S(=O)(=O)N2CCCCCC2)c(OC)cc1Br |  | inconclusive: 29.1 µM [inhibitor, single point]
7 | Cc1ccccc1NC(=O)/C=C/c1cccs1 |  | inconclusive: 29.1 µM [inhibitor, single point]
8 | CCOc1ccc(CCNC(=O)c2nn(C)c3c2CSc2ccccc2-3)cc1 |  | inconclusive: 20.6 µM [inhibitor, single point]
9 | O=C(O)Cc1ccccc1Oc1ccc(Cl)cc1Cl | inactive: -11.4% | 
10 | CC[C@]12c3[nH]c4ccc(OC)cc4c3CCN1C(=O)C(CC(=O)NC/C=C(\C)CCC=C(C)C)C[C@@H]2C(=O)N1CCN(C(=O)c2ccco2)CC1 (stereo not given in full) |  | inconclusive: 18.4 µM [inhibitor, single point]
11 | Cc1ccc(C(c2nnnn2C2CCCCC2)N2CCc3ccccc32)cc1 (stereo not given) |  | inconclusive: 18.4 µM [inhibitor, single point]
12 | COc1cccc(C(NC(C)=O)c2nc(-c3cccc(C(F)(F)F)c3)cs2)c1 (stereo not given) |  | inconclusive: 13 µM [inhibitor, partial curve, poor fit]
13 | O=c1[nH]nc(Cc2ccc(Cl)cc2)c2ccccc12 |  | inconclusive: 29.1 µM [inhibitor, single point]
14 | COc1ccccc1-c1cc(C(=O)NN)[nH]n1 |  | inconclusive: 29.1 µM [inhibitor, single point]
15 | O=C(C1CCC1)N1CCc2cc(S(=O)(=O)Nc3ccc4c(c3)OCO4)ccc21 |  | active: 14.1 µM
16 | Cc1ccc(Cn2cnc3nc4c(cc3c2=O)CC(C)CC4)cc1 (stereo not given) |  | active: 14.6 µM
17 | CCOCCCNC(=O)C(c1ccc(Cl)cc1)N1CCN(c2ccccc2)CC1 (stereo not given) |  | inconclusive: 16.4 µM [inhibitor, single point]
18 | COc1ccc(NC(=O)CSCC(=O)N(C)Cc2cccc(OC)c2OC)cc1 |  | inconclusive: 29.1 µM [inhibitor, single point]
19 | COc1ccc(C(=O)c2c(-c3cccc(C)c3)oc3ccc(N4CCOCC4)cc23)cn1 |  | active: 14.6 µM
20 | COCCNC(=S)NNc1cccc(C(=O)O)c1 |  | inconclusive: 29.1 µM [inhibitor, single point]
21 | CC(C)c1nc2cc(C(=O)N(C)Cc3ccc(F)cc3)ccc2o1 | inactive: -21.7% | 
22 | COc1ccc(C(=O)NNC(=S)NC(=O)c2ccc(OC)cc2)cc1 |  | inconclusive: 20.6 µM [inhibitor, single point]
23 | Cc1cccc(C(=O)NNc2ncnc3c2cnn3-c2ccc(C)cc2C)c1 |  | inconclusive: 23.1 µM [inhibitor, single point]
24 | CCCC(=O)Nc1ccc(Cl)c(NC(=O)c2ccc([N+](=O)[O-])cc2Cl)c1 |  | inconclusive: 23.1 µM [inhibitor, single point]

Row | SMILES | activity change, negative = growth inhibition | Potency
25 | CCOC(=O)NN1C(=O)c2ccccc2NC1c1ccc(OC)cc1 (stereo not given) |  | inconclusive: 29.1 µM [inhibitor, single point]
26 | O=[N+]([O-])c1ccccc1-c1cc(-c2ccccc2O)n[nH]1 |  | inconclusive: 29.1 µM [inhibitor, single point]
27 | CCOc1ccccc1CNC(=O)CCCn1ccc2cc(S(=O)(=O)N3CCCC3)ccc21 |  | active: 23.1 µM and active: 20.6 µM
28 | COc1ccc(CCNC(=O)Nc2ccc3c(c2)c(=O)n(C)n3Cc2ccc(F)cc2)cc1OC |  | inconclusive: 18.4 µM [inhibitor, partial curve]
29 | Cc1ccc(NC(=O)N2CCC(C(=O)c3ccc(F)cc3)CC2)cc1 |  | inconclusive: 25.9 µM [inhibitor, single point]
30 | COc1cc(C(=O)NCc2cc3cc(Cl)ccc3n2C)cc(OC)c1OC |  | inconclusive: 16.4 µM [inhibitor, single point]
31 | CN(C)CC/C=C1\c2cc(F)ccc2CSc2ccccc21 |  | inconclusive: 16.4 µM [inhibitor, single point]
32 | COc1ccc2oc(C(=O)Nc3nc(C)cs3)c(C)c2c1 |  | inconclusive: 25.9 µM [inhibitor, single point]
33 | COc1cccc(/C=N/NC(=O)c2nc(-c3ccccc3)cc(-c3ccccc3)n2)c1 |  | active: 20.6 µM
34 | CCCNC(=O)CN1C(=O)CSc2ccc(S(=O)(=O)N3CCC(C)CC3)cc21 | inconclusive: -32.2% [inhibitor] | 
35 | COc1ccccc1C(=O)OCC(=O)NC1CCCC1 | inactive: -1.22% | 
36 | CCOCCCNS(=O)(=O)c1cc2[nH]c3c(c2cc1C)C(=O)CC(C)(C)C3 |  | inconclusive: 5.8 µM [inhibitor, partial curve]
37 | O=C1CC(N2CCN(S(=O)(=O)c3ccccc3F)CC2)C(=O)N1c1ccccc1F (stereo not given) | inactive: 22.8% | 
38 | COc1ccc(S(=O)(=O)Nc2ccc3oc(C)c(C(C)=O)c3c2)cc1 |  | active: 5.17 µM
39 | CN(C)c1ccc(NC(=O)CSc2n[nH]c(-c3ccco3)n2)cc1 | inactive: -11.6% | 
40 | CCOc1ccc(N2CC(C(=O)Nc3cc(S(=O)(=O)N4CCCCC4)ccc3C)CC2=O)cc1 (stereo not given) |  | inconclusive: 29.1 µM [inhibitor, single point]
41 | CN(C)S(=O)(=O)Oc1ccsc1C(=O)Nc1cccc(Cl)c1Cl |  | inconclusive: 29.1 µM [inhibitor, single point]
42 | CCCC(=O)N1CCC1(C)C(=O)Nc1ccccn1 (stereo not given) | inactive: -1.47% | 
43 | O=C(Oc1ccc(/C=N/Nc2ccccc2)cc1)c1ccccc1 |  | inconclusive: 29.1 µM [inhibitor, partial curve]
44 | CCC(C)(C)NC(=O)C(c1ccc(C)cc1)N(Cc1ccco1)C(=O)CCC(=O)Nc1nccs1 (stereo not given) |  | inconclusive: 20.6 µM [inhibitor, single point]
45 | COc1cc(/C=C2/C(=N)N3N=C(C(C)C)SC3=NC2=O)ccc1OS(=O)(=O)c1ccccc1 |  | inconclusive: 20.6 µM [inhibitor, single point]
46 | COc1ccc(CNC(=O)COC(=O)CCn2c(C)csc2=O)cc1OC | inactive: -25.4% | 
47 | Cc1ccc(Nc2c(C(C)C)c(C)c(C#N)c3nc4ccccc4n23)cc1 |  | active: 14.6 µM
48 | Cc1ccc(C(=O)c2ccccc2C(=O)O)cc1C | inactive: 0.113% | 

Row | SMILES | activity change, negative = growth inhibition | Potency
49 | c1ccc(C2Oc3ccccc3C3CC(c4cccs4)=NN32)cc1 (stereo not given) |  | active: 16.4 µM
50 | Cc1ccc(S(=O)(=O)CCSc2cccc(C(=O)Nc3ccccc3C(=O)O)c2)cc1 |  | inconclusive: 29.1 µM [inhibitor, single point]
51 | COc1cc(/C=N/n2c(C)n[nH]c2=S)ccc1OCc1ccc(F)cc1 |  | active: 18.4 µM
52 | COc1ccccc1-c1coc2cc(OC(=O)/C=C/c3ccccc3)ccc2c1=O | inactive: -20.5% | 
53 | C(=N\N1CCN(C2c3ccccc3-c3ccccc32)CC1)/c1ccncc1 |  | inconclusive: 25.9 µM [inhibitor, single point]
54 | COc1cc(Cl)ccc1OCc1cc(C(=O)NC(C)Cc2cnccn2)no1 (stereo not given) | inactive: -25.8% | 
55 | Cc1cc2c([nH]c3ccccc32)c2c1OC(C)(C)C=C2 |  | inconclusive: 29.1 µM [inhibitor, single point]
56 | CC(Oc1ccc2c(-c3ccccc3)cc(=O)oc2c1)C(=O)NCc1ccccn1 (stereo not given) |  | inconclusive: 16.4 µM [inhibitor, single point]
57 | CCN=c1scc(C)n1/N=C/c1cc(Br)c(O)c(OC)c1 |  | inconclusive: 8.2 µM [inhibitor, partial curve]
58 | CCN(CC)C(=O)C1CCN(S(=O)(=O)c2c(C)noc2/C=C/c2cccc(OC)c2)CC1 |  | inconclusive: 29.1 µM [inhibitor, single point]
59 | COc1cccc(NC(=S)N/N=C2\CC(C)(C)Oc3ccc(O)cc32)c1 |  | inconclusive: 25.9 µM [inhibitor, single point]
60 | O=c1c2ccccc2nc2c3ccccc3cnn12 |  | inconclusive: 10.3 µM [inhibitor, partial curve]
61 | COc1ccc2c(c1)CCc1c(C(=O)Nc3c(C)nn(Cc4ccccc4)c3C)noc1-2 |  | active: 14.6 µM and active: 9.2 µM
62 | CCc1nnc(NC(=O)COc2ccc(N(C)S(=O)(=O)c3ccc(C)cc3)cc2)s1 |  | inconclusive: 23.1 µM [inhibitor, single point]
63 | O=C(CCc1ccccc1)NNC(=S)NC(=O)c1ccc(Cl)cc1 |  | active: 23.1 µM
64 | Cc1ccccc1CC1(CO)CCCN(C(=O)CCC(=O)c2ccccc2)C1 (stereo not given) |  | inconclusive: 29.1 µM [inhibitor, single point]
65 | CCCCc1ccc(NC(=S)N2CCC(O)CC2)cc1 | inactive: 0.413% | 
66 | COC(=O)CSc1nn(-c2ccc(F)cc2)c(=S)s1 | inactive: 7.91% | 
67 | CS(=O)(=O)Nc1cccc(NC(=O)c2cccc3c(-c4cccnc4)coc23)c1 |  | active: 16.4 µM
68 | O=C(CCCCCNc1nc(=S)[nH]c2ccccc12)NCCc1c[nH]c2ccccc12 |  | active: 14.6 µM
69 | COc1cc(CNC(=O)c2ccc3c(c2)S(=O)(=O)c2ccccc2C3=O)cc(OC)c1 |  | inconclusive: 16.4 µM [inhibitor, single point]
70 | CCOc1ccc(NC(=O)c2cc(S(=O)(=O)NC3CCCCCC3)ccc2F)cc1 |  | inconclusive: 23.1 µM [inhibitor, single point]
